Measurements from patent US20250304706A1 (Astellas, published 2025).

Target: T1, CD3εδ complex protein (human; alpaca, UniProt P07766 23-126; P04234 22-105)
T1 construct: they are not part of the secreted protein; also called human CD3; CD386 complex protein
Assay: ELISA, CD3 complex immobilized
Protocol: Binding activities of the anti-TSPAN8/anti-CD3 bispecific antibodies BTE-0001 to BTE-0067 to CD3 were evaluated by the ELISA. ELISA was performed according to a conventional method. The […] complex protein obtained in Example 1-3 was immobilized on a plate. BTE-0001 to BTE-0067 were used as the test antibodies. As a secondary antibody, Goat anti-Human IgG Fc, Multi-Species SP ads-HRP (2014-05, available from SouthernBiotech) was used. TMB+Substrate-Chromogen (S1599, available from Dako) was used as the detection reagent. Infinite M200pro (available from Tecan) was used to measure the absorbance. The EC50 values were calculated using variable slope model (four parameters) in GraphPad Prism with the maximum value in the same plate fixed at the top and the minimum value in the blank in the same plate fixed at the bottom. Since BTE-0001 was always measured in each plate as a control, only the EC50 value of BTE-0001 was expressed as the average value of a plurality of plates.
Binding activities of the 66 anti-TSPAN8/anti-CD3 bispecific antibodies to CD3 were evaluated by the ELISA described in Example 1-4.

Sequence of UniProt P07766 (P07766 23-126 limits assumed, stated change not applied, form in doubt, chain 1 of 2): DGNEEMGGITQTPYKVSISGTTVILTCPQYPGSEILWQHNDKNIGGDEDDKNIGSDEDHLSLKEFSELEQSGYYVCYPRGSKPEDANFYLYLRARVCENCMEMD
Sequence of UniProt P07766 (P04234 22-105 limits assumed, stated change not applied, form in doubt, chain 2 of 2, further chain): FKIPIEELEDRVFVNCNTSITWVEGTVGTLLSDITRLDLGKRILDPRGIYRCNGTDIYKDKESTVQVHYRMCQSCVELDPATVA

Binder | EC50
BTE-0079 (bispecific antibody, anti-TSPAN8/anti-CD3) heavy: QVQLVESGGGVVQPGGSLRLSCAASGFTFSSYGMHWVRQAPGKGLEWVAVIWYDGRNKYYADSVKGRFTISRDNSKNTLYLQMNSLRAEDTAVYYCTRDHSGSGSYYIDYWGQGTLVTVSSASTKGPSVFPLAPSSKSTSGGTAALGCLVKDYFPEPVTVSWNSGALTSGVHTFPAVLQSSGLYSLSSVVTVPSSSLGTQTYICNVNHKPSNTKVDKKVEPKSCDKTHTCPPCPAPEAAGGPSVFLFPPKPKDTLMISRTPEVTCVVVDVSHEDPEVKFNWYVDGVEVHNAKTKPREEQYNSTYRVVSVLTVLHQDWLNGKEYKCKVSNKALAAPIEKTISKAKGQPREPQVYTLPPSRDELTKNQVSLSCAVKGFYPSDIAVEWESNGQPENNYKTTPPVLDSDGSFFLVSKLTVDKSRWQQGNVFSCSVMHEALHNHYTQKSLSLSPGK light: EIAMTQSPATLSVSPGERATLSCRASQSVSSNLAWYQQKPGQAPRLLIYGASTRATGLPARFSGSGSGTEFTLTISSLQSEDFAVYYCQQYNNFWTFGQGTKVEIKRTVAAPSVFIFPPSDEQLKSGTASVVCLLNNFYPREAKVQWKVDNALQSGNSQESVTEQDSKDSTYSLSSTLTLSKADYEKHKVYACEVTHQGLSSPVTKSFNRGEC scFv-Fc: EVQLVESGGGLIQPGGSLRLSCAASGFTFNTYAMNWVRQAPGKGLEWVARIRSKYNNYATYYADSVKDRFTISRDDSKSTLYLQMNNLRAEDTAVYYCVRHGNFGDDYVSWFAYWGQGTLVTVSSGKPGSGKPGSGKPGSGKPGSQAVVTQEPSLTVSPGGTVTLTCRSSTGAVTTSNYANWVQQKPGQAPRGLIGGTNKRAPGTPARFSGSLLGDKAALTLSGAQPEDEAEYYCALWYSNLWVFGGGTKVTVL[human IgG1 Fc with C220S L234A L235A P329A T366W (EU numbers) cut from this listing] | 0.22 µg/mL
BTE-0083 (bispecific antibody, anti-TSPAN8/anti-CD3) heavy: QVQLVESGGGVVQPGGSLRLSCAASGFTFSSYGMHWVRQAPGKGLEWVAVIWYDGRNKYYADSVKGRFTISRDNSKNTLYLQMNSLRAEDTAVYYCTRDHSGSGSYYIDYWGQGTLVTVSSASTKGPSVFPLAPSSKSTSGGTAALGCLVKDYFPEPVTVSWNSGALTSGVHTFPAVLQSSGLYSLSSVVTVPSSSLGTQTYICNVNHKPSNTKVDKKVEPKSCDKTHTCPPCPAPEAAGGPSVFLFPPKPKDTLMISRTPEVTCVVVDVSHEDPEVKFNWYVDGVEVHNAKTKPREEQYNSTYRVVSVLTVLHQDWLNGKEYKCKVSNKALAAPIEKTISKAKGQPREPQVYTLPPSRDELTKNQVSLSCAVKGFYPSDIAVEWESNGQPENNYKTTPPVLDSDGSFFLVSKLTVDKSRWQQGNVFSCSVMHEALHNHYTQKSLSLSPGK light: EIAMTQSPATLSVSPGERATLSCRASQSVSSNLAWYQQKPGQAPRLLIYGASTRATGLPARFSGSGSGTEFTLTISSLQSEDFAVYYCQQYNNFWTFGQGTKVEIKRTVAAPSVFIFPPSDEQLKSGTASVVCLLNNFYPREAKVQWKVDNALQSGNSQESVTEQDSKDSTYSLSSTLTLSKADYEKHKVYACEVTHQGLSSPVTKSFNRGEC scFv-Fc: EVQLVESGGGLIQPGGSLRLSCAASGFTFNTYAMHWVRQAPGKGLEWVARIRSKYNNYATYYADSVKDRFTISRDDSKSTLYLQMNNLRAEDTAVYYCVRHGNFGNSYVSWFAYWGQGTLVTVSSGKPGSGKPGSGKPGSGKPGSQAVVTQEPSLTVSPGGTVTLTCRSSTGAVTTSNYANWVQQKPGQAPRGLIGGTNKRAPGVPARFSGSLLGDKAALTLSGAQPEDEAEYYCALWYSNLWVFGGGTKVTVL[human IgG1 Fc with C220S L234A L235A P329A T366W (EU numbers) cut from this listing] | 0.165 µg/mL
BTE-0090 (bispecific antibody, anti-TSPAN8/anti-CD3) heavy: QVQLVESGGGVVQPGGSLRLSCAASGFTFSSYGMHWVRQAPGKGLEWVAVIWYDGRNKYYADSVKGRFTISRDNSKNTLYLQMNSLRAEDTAVYYCTRDHSGSGSYYIDYWGQGTLVTVSSASTKGPSVFPLAPSSKSTSGGTAALGCLVKDYFPEPVTVSWNSGALTSGVHTFPAVLQSSGLYSLSSVVTVPSSSLGTQTYICNVNHKPSNTKVDKKVEPKSCDKTHTCPPCPAPEAAGGPSVFLFPPKPKDTLMISRTPEVTCVVVDVSHEDPEVKFNWYVDGVEVHNAKTKPREEQYNSTYRVVSVLTVLHQDWLNGKEYKCKVSNKALAAPIEKTISKAKGQPREPQVYTLPPSRDELTKNQVSLSCAVKGFYPSDIAVEWESNGQPENNYKTTPPVLDSDGSFFLVSKLTVDKSRWQQGNVFSCSVMHEALHNHYTQKSLSLSPGK light: EIAMTQSPATLSVSPGERATLSCRASQSVSSNLAWYQQKPGQAPRLLIYGASTRATGLPARFSGSGSGTEFTLTISSLQSEDFAVYYCQQYNNFWTFGQGTKVEIKRTVAAPSVFIFPPSDEQLKSGTASVVCLLNNFYPREAKVQWKVDNALQSGNSQESVTEQDSKDSTYSLSSTLTLSKADYEKHKVYACEVTHQGLSSPVTKSFNRGEC scFv-Fc: EVQLVESGGGLIQPGGSLRLSCAASGFTFNTYAMNWVRQAPGKGLEWVARIRSKYNNYATYYADSVKDRFTISRDDSKSTLYLQMNNLRAEDTAVYYCVRHGNFGNDYVSWFAYWGQGTLVTVSSGKPGSGKPGSGKPGSGKPGSQAVVTQEPSLTVSPGGTVTLTCRSSTGAVTTSNYANWVQQKPGQAPRGLIGGTNKRAPGVPARFSGSLLGDKAALTLSGAQPEDEAEYYCALWYSNLWVFGGGTKVTVL[human IgG1 Fc with C220S L234A L235A P329A T366W (EU numbers) cut from this listing] | 0.12 µg/mL
BTE-0080 (bispecific antibody, anti-TSPAN8/anti-CD3) heavy: QVQLVESGGGVVQPGGSLRLSCAASGFTFSSYGMHWVRQAPGKGLEWVAVIWYDGRNKYYADSVKGRFTISRDNSKNTLYLQMNSLRAEDTAVYYCTRDHSGSGSYYIDYWGQGTLVTVSSASTKGPSVFPLAPSSKSTSGGTAALGCLVKDYFPEPVTVSWNSGALTSGVHTFPAVLQSSGLYSLSSVVTVPSSSLGTQTYICNVNHKPSNTKVDKKVEPKSCDKTHTCPPCPAPEAAGGPSVFLFPPKPKDTLMISRTPEVTCVVVDVSHEDPEVKFNWYVDGVEVHNAKTKPREEQYNSTYRVVSVLTVLHQDWLNGKEYKCKVSNKALAAPIEKTISKAKGQPREPQVYTLPPSRDELTKNQVSLSCAVKGFYPSDIAVEWESNGQPENNYKTTPPVLDSDGSFFLVSKLTVDKSRWQQGNVFSCSVMHEALHNHYTQKSLSLSPGK light: EIAMTQSPATLSVSPGERATLSCRASQSVSSNLAWYQQKPGQAPRLLIYGASTRATGLPARFSGSGSGTEFTLTISSLQSEDFAVYYCQQYNNFWTFGQGTKVEIKRTVAAPSVFIFPPSDEQLKSGTASVVCLLNNFYPREAKVQWKVDNALQSGNSQESVTEQDSKDSTYSLSSTLTLSKADYEKHKVYACEVTHQGLSSPVTKSFNRGEC scFv-Fc: EVQLVESGGGLIQPGGSLRLSCAASGFTFNTYAMNWVRQAPGKGLEWVARIRSKYNNYATYYADSVKDRFTISRDDSKSTLYLQMNNLRAEDTAVYYCVRHGNFGDSYVSWFDYWGQGTLVTVSSGKPGSGKPGSGKPGSGKPGSQAVVTQEPSLTVSPGGTVTLTCRSSTGAVTTSNYANWVQQKPGQAPRGLIGGTNKRAPGTPARFSGSLLGDKAALTLSGAQPEDEAEYYCALWYSNLWVFGGGTKVTVL[human IgG1 Fc with C220S L234A L235A P329A T366W (EU numbers) cut from this listing] | 1.18 µg/mL
BTE-0085 (bispecific antibody, anti-TSPAN8/anti-CD3) heavy: QVQLVESGGGVVQPGGSLRLSCAASGFTFSSYGMHWVRQAPGKGLEWVAVIWYDGRNKYYADSVKGRFTISRDNSKNTLYLQMNSLRAEDTAVYYCTRDHSGSGSYYIDYWGQGTLVTVSSASTKGPSVFPLAPSSKSTSGGTAALGCLVKDYFPEPVTVSWNSGALTSGVHTFPAVLQSSGLYSLSSVVTVPSSSLGTQTYICNVNHKPSNTKVDKKVEPKSCDKTHTCPPCPAPEAAGGPSVFLFPPKPKDTLMISRTPEVTCVVVDVSHEDPEVKFNWYVDGVEVHNAKTKPREEQYNSTYRVVSVLTVLHQDWLNGKEYKCKVSNKALAAPIEKTISKAKGQPREPQVYTLPPSRDELTKNQVSLSCAVKGFYPSDIAVEWESNGQPENNYKTTPPVLDSDGSFFLVSKLTVDKSRWQQGNVFSCSVMHEALHNHYTQKSLSLSPGK light: EIAMTQSPATLSVSPGERATLSCRASQSVSSNLAWYQQKPGQAPRLLIYGASTRATGLPARFSGSGSGTEFTLTISSLQSEDFAVYYCQQYNNFWTFGQGTKVEIKRTVAAPSVFIFPPSDEQLKSGTASVVCLLNNFYPREAKVQWKVDNALQSGNSQESVTEQDSKDSTYSLSSTLTLSKADYEKHKVYACEVTHQGLSSPVTKSFNRGEC scFv-Fc: EVQLVESGGGLIQPGGSLRLSCAASGFTFNTYAMGWVRQAPGKGLEWVARIRSKYNNYATYYADSVKDRFTISRDDSKSTLYLQMNNLRAEDTAVYYCVRHGNFGNSYVSWFAYWGQGTLVTVSSGKPGSGKPGSGKPGSGKPGSQAVVTQEPSLTVSPGGTVTLTCRSSTGAVTTSNYANWVQQKPGQAPRGLIGGTNKRAPGVPARFSGSLLGDKAALTLSGAQPEDEAEYYCALWYSNLWVFGGGTKVTVL[human IgG1 Fc with C220S L234A L235A P329A T366W (EU numbers) cut from this listing] | 0.729 µg/mL
